The list shows a part of the results.
The molecules below were run on HSkMC (human skeletal muscle cells) (assay: cytotoxicity call (relative viability < 0.9)). Details: 10 µM.
C[C@@H]1CN([C@@H](C)CO)C(=O)c2cc(NC(=O)c3ccncc3)ccc2O[C@@H](C)CCCCO[C@@H]1CN(C)C(=O)NC1CCCCC1 was tested, and the cytotoxicity call was “inactive”.
With COC(=O)C[C@H]1CC[C@@H]2[C@H](COC[C@H](O)CN2S(=O)(=O)c2ccc(F)cc2)O1 the cytotoxicity call was “inactive”.
For CCO/N=[N+](\[O-])N1CCCC1, the cytotoxicity call was “inactive”.
In the case of CO[C@@H]1CN(C)C(=O)c2ccc(NS(=O)(=O)c3cn(C)cn3)cc2OC[C@@H](C)N(CCC(F)(F)F)C[C@@H]1C, the cytotoxicity call is reported as “inactive”.
CC(=O)N[C@@H](C=O)[C@@H](O)[C@H](O)[C@H](O)CO was tested, and the cytotoxicity call was “inactive”.
With C[C@@H](Nc1nc(=O)cc(F)[nH]1)C(=O)O the cytotoxicity call was “inactive”.
In the case of C[C@H](CO)N1C[C@H](C)[C@@H](CN(C)S(=O)(=O)c2ccc3c(c2)OCCCO3)OCc2cnnn2CCCC1=O, the cytotoxicity call is reported as “inactive”.
For CC(C)(C)[S@@](=O)N1Cc2cc(C(=O)NC3CCC3)nc(-c3cccc(-c4ccccc4F)c3)c2[C@H]1CCO, the cytotoxicity call was “inactive”.
With C[C@]1(C(=O)NCc2ccccc2)c2ccccc2C(=O)N(Cc2ccc(OC(F)(F)F)cc2)[C@H]1c1ccc(CO)cc1 the cytotoxicity call was “inactive”.
O=C(C[C@H]1CC[C@H](NC(=O)c2ccc(F)cc2)[C@H](CO)O1)NCc1ccncn1 was tested, and the cytotoxicity call was “inactive”.
For CN(C)CCN(Cc1ccccc1)c1ccccn1.O=C(O)CC(O)(CC(=O)O)C(=O)O, the cytotoxicity call was “inactive”.
For Cc1ccc(S(=O)(=O)Nc2ccc3c(c2)CC(=O)N([C@@H](C)CO)C[C@@H](C)[C@H](CN(C)Cc2ccncc2)O3)cc1, the cytotoxicity call was “inactive”.
For C[C@H](CO)N1C[C@H](C)[C@@H](CN(C)S(=O)(=O)c2cn(C)cn2)Oc2ccc(NS(=O)(=O)c3ccccc3)cc2C1=O, the cytotoxicity call was “inactive”.
In the case of C[C@@H]1CCCCO[C@@H](CN(C)S(=O)(=O)c2cccs2)[C@H](C)CN([C@@H](C)CO)C(=O)c2cc(NC(=O)Cc3ccccc3)ccc2O1, the cytotoxicity call is reported as “inactive”.
C[C@@H]1CN([C@H](C)CO)C(=O)c2cccc(NS(=O)(=O)c3ccc(Cl)cc3)c2O[C@H]1CN(C)C(=O)Nc1ccc(C(F)(F)F)cc1 was tested, and the cytotoxicity call was “inactive”.
In the case of Cc1ccc(S(=O)(=O)NCCOc2nc(N(C)C)nc(N3CCOCC3)n2)cc1, the cytotoxicity call is reported as “inactive”.
With C[C@H]1CN([C@@H](C)CO)S(=O)(=O)c2ccc(C#CC3(O)CCCC3)cc2O[C@H]1CN(C)C(=O)Cc1ccccc1 the cytotoxicity call was “inactive”.
With C[C@@H]1CN([C@H](C)CO)C(=O)c2cc(NC(=O)c3ccccc3)ccc2O[C@@H](C)CCCCO[C@H]1CN(C)S(=O)(=O)c1ccc(F)cc1 the cytotoxicity call was “inactive”.
With C[C@@H]1CN([C@@H](C)CO)C(=O)c2cc(NS(=O)(=O)c3cccs3)ccc2O[C@@H](C)CCCCO[C@H]1CN(C)C(=O)c1ccccc1 the cytotoxicity call was “inactive”.
In the case of C[C@@H]1CN([C@H](C)CO)C(=O)c2cc(N(C)C)ccc2O[C@@H](C)CCCCO[C@H]1CN(C)S(=O)(=O)c1cn(C)cn1, the cytotoxicity call is reported as “inactive”.
In the case of COc1ccc(CN(C)C[C@@H]2OCCCC[C@@H](C)Oc3ccc(NC(=O)Nc4ccc(C(F)(F)F)cc4)cc3C(=O)N([C@H](C)CO)C[C@H]2C)cc1, the cytotoxicity call is reported as “active”.
With CCCCCCCCCCCCCCCCCC(=O)OC[C@@H](COP(=O)(O)OCC[N+](C)(C)C)OC(=O)CCCCCCCCCCCCCCCCC the cytotoxicity call was “inactive”.
With Cn1c(=O)c2c(ncn2CC2OCCO2)n(C)c1=O the cytotoxicity call was “inactive”.
For N#C[C@H](c1ccccn1)N1CCOCC1, the cytotoxicity call was “inactive”.
With O=C(C[C@H]1C[C@@H]2c3cc(NC(=O)NC4CCCC4)ccc3O[C@@H]2[C@H](CO)O1)NCc1ccc2c(c1)OCO2 the cytotoxicity call was “inactive”.
For C[C@H]1CN([C@@H](C)CO)C(=O)c2cc(/C=C/c3ccccc3)cnc2O[C@@H]1CN(C)S(=O)(=O)c1cn(C)cn1, the cytotoxicity call was “inactive”.
In the case of Fc1ccccc1[C@H]1Nc2ccc3ccccc3c2[C@H]2C=CC[C@@H]21, the cytotoxicity call is reported as “inactive”.
CC(C)NC(=O)N(C)C[C@H]1Oc2ccc(NC(=O)NC3CCCCC3)cc2C(=O)N([C@H](C)CO)C[C@@H]1C was tested, and the cytotoxicity call was “inactive”.
In the case of Cc1noc(C)c1NC(=O)N(C)C[C@H]1Oc2ccc(NS(=O)(=O)c3ccccc3)cc2C(=O)N([C@@H](C)CO)C[C@@H]1C, the cytotoxicity call is reported as “inactive”.
With Cc1noc(C)c1S(=O)(=O)Nc1ccc2c(c1)C(=O)N([C@@H](C)CO)C[C@@H](C)[C@H](CN(C)S(C)(=O)=O)OCCCC[C@@H](C)O2 the cytotoxicity call was “inactive”.
For O=C1OCCC/C=C\[C@H]2O[C@@]34C=CCN(c5ccc6ccccc6c5)C(=O)[C@H]3N(CCCCCO)C(=O)[C@@H]4[C@@H]12, the cytotoxicity call was “inactive”.
O=C(NCCO)c1cc2ccccc2c(=O)s1 was tested, and the cytotoxicity call was “inactive”.
For COc1ccccc1NC(=O)N(C)C[C@H]1Oc2cc(Br)ccc2S(=O)(=O)N([C@@H](C)CO)C[C@@H]1C, the cytotoxicity call was “inactive”.
For C[C@H]1CN([C@@H](C)CO)C(=O)c2cccc(NC(=O)Nc3cccc4ccccc34)c2O[C@@H]1CN(C)C(=O)Nc1ccccc1, the cytotoxicity call was “active”.
For Cc1ccc(S(=O)(=O)Nc2ccc3c(c2)C(=O)N([C@H](C)CO)C[C@@H](C)[C@H](CN(C)Cc2ccc(-c4ccccc4)cc2)O3)cc1, the cytotoxicity call was “inactive”.
C[C@H](CO)N1C[C@H](C)[C@@H](CN(C)C(=O)Nc2ccc(C(F)(F)F)cc2)OCCCC[C@H](C)Oc2ccc(N(C)C)cc2C1=O was tested, and the cytotoxicity call was “inactive”.
In the case of CCCN(C)C[C@H]1OCCCC[C@@H](C)Oc2ccc(NS(C)(=O)=O)cc2C(=O)N([C@H](C)CO)C[C@@H]1C, the cytotoxicity call is reported as “inactive”.
With CC(C)=C[C@H]1[C@@H](c2nc3cc(Br)ccc3o2)C1(C)C the cytotoxicity call was “inactive”.
CC(C)NC(=O)N(C)C[C@H]1Oc2c(NS(=O)(=O)c3cccs3)cccc2C(=O)N([C@@H](C)CO)C[C@H]1C was tested, and the cytotoxicity call was “inactive”.
With CCCC#Cc1ccc2c(c1)O[C@@H](CN(C)Cc1ccc3c(c1)OCO3)[C@H](C)CN([C@@H](C)CO)S2(=O)=O the cytotoxicity call was “inactive”.
